These results are taken from PubChem BioAssay AID485344 (National Center for Advancing Translational Sciences (NCATS), 2010).

SMILES strings stand for the structures. Out of some 340,000 compounds screened, about 6,900 (2%) were called active. Cut-off read from the data, not from the text of the source: active = inhibition above about 30%; inactive = below that, where a call was filed. Only a part is listed here, and it is no random draw. The source gives no active or inactive call for entries shown without one. More than one record can exist for a structure, and the calls need not agree.

Sequence of UniProt P14416 (P14416 whole entry, looked up): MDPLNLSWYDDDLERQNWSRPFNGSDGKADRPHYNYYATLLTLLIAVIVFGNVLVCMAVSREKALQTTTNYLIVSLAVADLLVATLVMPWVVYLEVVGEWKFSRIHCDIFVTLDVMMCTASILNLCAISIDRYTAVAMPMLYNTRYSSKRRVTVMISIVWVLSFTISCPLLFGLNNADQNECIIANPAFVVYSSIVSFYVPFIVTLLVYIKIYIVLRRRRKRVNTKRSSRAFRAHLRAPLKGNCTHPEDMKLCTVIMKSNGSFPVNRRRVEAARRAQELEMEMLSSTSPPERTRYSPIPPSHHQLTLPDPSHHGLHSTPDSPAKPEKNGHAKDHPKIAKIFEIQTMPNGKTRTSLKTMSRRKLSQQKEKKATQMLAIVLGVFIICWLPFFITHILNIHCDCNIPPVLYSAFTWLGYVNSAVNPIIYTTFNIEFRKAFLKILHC

This test addresses D(2) dopamine receptor (Homo sapiens) (UniProt P14416). The experiment in a line: HTS Assay for Allosteric Antagonists of the Human D2 Dopamine Receptor: Primary Screen for Antagonists. Note: 0% is about no effect. To be noted: HEK293 TREx D2 cells, calcium flux, dopamine EC80; at 10 µM; stronger effect = higher value. The method in brief:
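Cells plated overnight at 30 C with tetracycline; no-wash calcium dye, 30–90 min RT; 10 s baseline; compound pinned; 180 s read; EC80 dopamine added; another 180 s read.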
Background: A change in cytosolic calcium serves as a functional read-out for many receptors and channels.
For the molecule `O=C(Nc1cccc(Cl)c1)c1cnc[nH]1`, the inhibition came to 9.12%.

`COc1ccc(Br)cc1C1Sc2ccccc2NC2=C1C(=O)c1ccccc12` (stereo not given): the inhibition is -22.8%.

Consider `O=C(COc1ccccc1)Nc1nnc(S(=O)(=O)N2CCCC2)s1`, for which the inhibition worked out at 19.9%.

Turning to `CCOc1ncccc1C(=O)N1CCN(Cc2ccc3c(c2)OCO3)CC1`, the inhibition is active: 74.8%.

Consider `O=C(OCC1CCCO1)c1ccc2c(c1)N(Cc1ccccc1Cl)C(=O)c1ccccc1S2(=O)=O` (stereo not given), for which the inhibition turned out to be 4.6%.

In the case of `O=C(Nc1ccc2oc(-c3ccc4ccccc4c3)nc2c1)c1ccccc1F`, the inhibition is -23.8%.

For the molecule `COc1ccccc1NC(=O)C(Cc1ccccc1)NS(=O)(=O)c1ccc2c(c1)c(=O)n(C)c(=O)n2C` (stereo not given), the inhibition came out at 22.2%.

As to `CCOc1ccc(-n2c(=O)c3c4c(sc3n(CC(=O)Nc3cccc(C(F)(F)F)c3)c2=O)CCCCC4)cc1`, the inhibition was 2.97%.

For `O=C(NCc1ccc(F)cc1)c1c(O)nc2ccccn2c1=O`, the inhibition is -12.5%.

Take `Cc1cc(Nc2cccc(C(F)(F)F)c2)nc2ccc(NC(=O)c3ccc(=O)[nH]c3)cc12`: the inhibition was determined as 0.428%.

Regarding `CCCCOc1cccc(NC(=O)CSc2nnc(C)s2)c1`, the inhibition came to 2.06%.

On to `OC(COc1ccccc1)CN1CCN(Cc2ccc3c(c2)OCO3)CC1` (stereo not given), for which the inhibition is active: 35.9%.

With `CN(Cc1ccccc1)c1ncnc2onc(-c3ccc(F)cc3)c12`, the inhibition is 2%.

For the molecule `COc1ccc(-c2csc(NC(=O)CN3C(=O)NC4(CCCC4)C3=O)n2)cc1`, the inhibition is active: 38.3%.

Regarding `Cc1ccc(CS(=O)(=O)c2ncc(Cl)c(C(=O)Nc3nc4ccc(F)cc4s3)n2)cc1`, the inhibition was -10.7%.

For the molecule `COC(=O)[C@H]1[C@H]2C[C@H]3c4[nH]c5ccccc5c4CCN3C[C@@H]2CC[C@@H]1O`, the inhibition is active: 43.4%.

For the molecule `CCOC(=O)c1c(S(=O)(=O)NCC(=O)NCc2cccc(C)c2)c(C)n(C)c1C`, the inhibition stood at 11.2%.

As for `Cc1ccc(-c2nc3c(c(SCC(=O)Nc4ccccc4Cl)n2)Cc2c(CO)cnc(C)c2O3)cc1`, the inhibition was -18.6%.

For the molecule `CCCCN(C)C(=O)C1CCC(CNS(=O)(=O)c2ccc(Cl)cc2)CC1` (stereo not given), the inhibition was -8.47%.

`CCC(Oc1ccccc1)C(=O)Nc1cc(-c2ccccc2OC)nn1-c1ccccc1` (stereo not given): the inhibition was -4.94%.

In the case of `COCCNc1nc2c(S(=O)(=O)c3ccc(C)c(C)c3)nnn2c2ccc(Cl)cc12`, the inhibition turned out to be 9.87%.

Turning to `Cc1nc2nncn2c(NCc2ccc(F)cc2)c1C`, the inhibition is -11.8%.

As for `COc1cc(OC)cc(C(=O)Nc2ccc(S(=O)(=O)Nc3ncccn3)cc2)c1`, the inhibition was -19.3%.

On to `Cc1ccc(NC(=O)CCS(=O)(=O)c2cc3c4c(c2)CCN4C(=O)CC3)c(C)c1`, for which the inhibition turned out to be 9.08%.

As to `O=C(NCc1ccc2c(c1)CCN2C(=O)c1ccc(Cl)cc1)c1cccc(F)c1`, the inhibition was -20.9%.

On to `CCc1noc(-c2ccc(N3CCCCC3C)c([N+](=O)[O-])c2)n1` (stereo not given), for which the inhibition was found to be 18.1%.

On to `O=C1OC2(c3ccccc31)c1cc(I)c(O)c(I)c1Oc1c2cc(I)c(O)c1I`, for which the inhibition was active: 53.3%.

For `CC(=O)Nc1ccccc1/C=C/c1ccc2c(C)ccc(O)c2n1`, the inhibition is active: 33.2%.

Consider `COc1ccc(CCNC(=O)CSc2nc(-c3ccc(F)cc3)cc(C(F)(F)F)n2)cc1OC`, for which the inhibition is 1.78%.

As to `Cc1cccc(C(=O)Nc2nnc(S(=O)(=O)N(C)Cc3ccco3)s2)c1`, the inhibition is 7.47%.

As to `Cc1ccc(NC(=O)CN2C(=O)C3(SCC(=O)N3c3cccc(Cl)c3)c3ccccc32)cc1C` (stereo not given), the inhibition came out at 4.75%.

Take `Cc1ccc(NS(=O)(=O)c2ccc3c(c2)CCCN3C(=O)C2CCC2)cc1Cl`: the inhibition was -15%.

As for `COc1cccc(NC(=O)CC(C)S(=O)(=O)c2ccc3c(c2)NC(=O)CO3)c1` (stereo not given), the inhibition was -8.82%.

Take `Cc1c(Cl)cccc1NC(=O)c1ncn(-c2ccccc2)n1`: the inhibition is -0.638%.

On to `O=C(O)c1cccc(-n2c(-c3cnccn3)n[nH]c2=S)c1`, for which the inhibition is active: 30.3%.

Take `Cc1ccc(-c2csc(=Nc3ccc(F)cc3)n2Cc2ccc3c(c2)OCO3)cc1C`: the inhibition came to 6.12%.

Take `CCOc1ccccc1NS(=O)(=O)c1ccc(-c2cnc(C3CC3)o2)cc1`: the inhibition stood at 5.17%.

With `Cc1ccc(-c2ccc(=O)n(CC(=O)Nc3cccc(C#N)c3)n2)cc1`, the inhibition is -15.7%.

Regarding `CCOc1ccc(-c2nc3c(c(SCC(=O)N4CCCCC4)n2)Cc2ccccc2O3)cc1`, the inhibition amounted to 9.14%.

As for `COc1ccc(Cn2nnnc2C(C(C)C)N2CCN(c3ccccc3OC)CC2)cc1` (stereo not given), the inhibition is active: 53%.

Take `O=C(C1CCCN(S(=O)(=O)c2ccc(Br)s2)C1)N1CCN(c2ccccc2)CC1` (stereo not given): the inhibition came out at 12.5%.

Take `CNC(=O)C1CCC(Cn2c(=O)c3sccc3n(CC(=O)NCc3ccc(F)cc3)c2=O)CC1` (stereo not given): the inhibition is -9.38%.

Take `CC(=O)N1CCCc2cc(S(=O)(=O)N3CCCC(C(=O)Nc4cc(Cl)ccc4C)C3)ccc21` (stereo not given): the inhibition turned out to be 9.93%.

Regarding `CCc1ccc2c(CN3CCC(C(=O)OC)CC3)cc(=O)oc2c1`, the inhibition is active: 106%.

`COc1ccc(NC(=O)c2ccc3c(=O)n4nc(Nc5cccc(Cl)c5C)sc4nc3c2)cc1`: the inhibition was determined as 1.94%.

For `Cc1ccc(C2CCN(C(=O)c3cnn(-c4ccc(C)cc4)c3C3CCN(C(=O)OC(C)(C)C)CC3)C2)cc1` (stereo not given), the inhibition was found to be 5.42%.

Regarding `C=Cc1ccc(Cn2c(C(=O)O)c(CNCc3ccccc3)c3ccc(C)cc32)cc1`, the inhibition amounted to 4.84%.

Turning to `CC(=O)Nc1ccc(NC(=O)c2oc3ccc4c(c3c2C)C(=O)CC(C)(C)O4)cc1`, the inhibition is -4.86%.

Consider `O=c1c(N2CCc3ccccc3C2)csc2ccccc12`, for which the inhibition is -11.3%.

For `O=C(NCCc1ccccc1)c1ccc2c(c1)N(Cc1ccccc1F)C(=O)c1ccccc1S2=O` (stereo not given), the inhibition was 5.24%.

With `COc1ccc(C(C(=O)NC2CCCC2)N(CCC(C)C)C(=O)CCC(=O)Nc2cc(C)on2)cc1` (stereo not given), the inhibition was active: 34.8%.

On to `N#C/C(=C\c1ccc(Cl)cc1)c1nc(-c2cc3c(ccc4ccccc43)oc2=O)cs1`, for which the inhibition turned out to be 3.98%.

Take `O=C(Cn1c(=O)n(-c2ccccc2)c(=O)c2sc3ccccc3c21)NC1CCCC1`: the inhibition was -7.32%.

`Cc1ccc(C)c(Nc2nn3c(=O)c4ccc(C(=O)NCc5cccs5)cc4nc3s2)c1`: the inhibition is -23.8%.

Turning to `COc1cccc(N2CCN(c3ncnc4onc(-c5ccc(Cl)cc5)c34)CC2)c1`, the inhibition was 22.1%.

In the case of `CN(C1CCCCC1)S(=O)(=O)c1ccc2c(c1)c(=O)c(C(=O)NCc1ccc(Cl)cc1)cn2C`, the inhibition was -2.42%.

As for `O=C(CN1C(=O)CC(c2ccc(F)cc2)=Nc2ccccc21)NCc1ccccc1Cl`, the inhibition was -9.98%.

As for `O=C(Nc1ccc2nc(SCC(=O)N3CCOCC3)sc2c1)c1ccc(Cl)cc1`, the inhibition is -10.3%.

For `O=C(c1ccccc1)N1CCCCC1CCN1CCCCC1` (stereo not given), the inhibition is -13.2%.

In the case of `CCN(Cc1ccccc1)C(=O)C(CC(C)C)NS(=O)(=O)c1ccc2c(c1)CCN2C(C)=O` (stereo not given), the inhibition was 0.723%.

Regarding `CCOc1ccc(NC(=O)C23CC4CC(C2)CC(c2ccccc2)(C4)C3)cc1`, the inhibition is active: 31.3%.

As for `Cc1cccc(N2CCN(C(=O)c3nn(C)c4c3CS(=O)(=O)c3ccccc3-4)CC2C)c1` (stereo not given), the inhibition is 28.1%.

With `Cc1ccc(-n2c(=O)c3ccccc3n(CC(=O)Nc3cccc(C(F)(F)F)c3)c2=O)cc1`, the inhibition was 5.81%.

Turning to `COc1cc(Cl)c(NS(=O)(=O)c2ccc(-c3coc(C)n3)cc2)c(OC)c1`, the inhibition came out at 21.5%.

Take `CC1CCCCN1CCCNC(=O)Cn1ncc2c3ccccc3n(Cc3ccccc3F)c2c1=O` (stereo not given): the inhibition came out at 0.207%.

For the molecule `Cc1ccc(-c2cc(C(F)(F)F)c(C#N)c(SCC(=O)Nc3ccccc3F)n2)cc1`, the inhibition came to 0.682%.

Consider `CCCOC(=O)c1cc(-c2ccc(C=O)o2)ccc1Cl`, for which the inhibition is active: 30.7%.

On to `CCN(c1ncnc2c1cnn2-c1cccc(Cl)c1)C1CCCCC1`, for which the inhibition stood at 10.4%.

As to `COCCn1c(C)cc(O)c(C(c2ccc(Cl)cc2)N2CCCCC2)c1=O` (stereo not given), the inhibition was -0.898%.

With `Cc1cc(C)c(NC(=O)CN2C(=O)CCSc3ccc(S(=O)(=O)N4CCCC4)cc32)c(C)c1`, the inhibition was 13.3%.

For the molecule `COc1cccc(CNC(=O)CN2C(=O)CSc3ccc(S(=O)(=O)N4CCCC4)cc32)c1`, the inhibition worked out at 4.77%.

Turning to `CCN1CCc2c(C#N)c(NCc3ccccc3)nc(N(CC)CC)c2C1`, the inhibition is active: 45.8%.

On to `CSc1ccc(CNC(=O)Cn2ccc3cc(S(=O)(=O)N4CCCC4)ccc32)cc1`, for which the inhibition is -6.68%.

For `O=c1[nH]c2ccccc2cc1CN(CC1CCCO1)S(=O)(=O)c1ccccc1` (stereo not given), the inhibition is active: 34.6%.

As for `COc1ccccc1CNC(=O)CS(=O)(=O)Cc1nc(-c2ccccc2C)oc1C`, the inhibition was determined as 19.6%.

Take `CCOCc1cc(=O)[nH]c(SC)n1`: the inhibition was active: 30.3%.

With `CN(C)c1ccc(C(=O)NCc2ccc3c(c2)CCN3C(=O)c2ccccc2)cc1`, the inhibition came out at 8.71%.

Take `CC(C)CCNC(=O)CSc1nc2ccccc2nc1Cc1ccc(Cl)cc1`: the inhibition was -9.07%.

As to `CN(C)c1ccc(CNC(=O)c2sc3ncccc3c2-n2cccc2)cc1`, the inhibition is 13.6%.

Regarding `CC1CCN(c2nc(-c3ccc(Br)cc3)nc3ccccc23)CC1`, the inhibition was 23.8%.

In the case of `Nc1[nH]n2c(=O)c3c(nc2c1N=Nc1ccccc1)CCCC3`, the inhibition is active: 37.5%.

Turning to `Cc1cc(C)cc(NC(=O)CCN2C(=O)c3ccccc3Sc3ncccc32)c1`, the inhibition is -26.3%.

Regarding `Nc1nnc(SCCN2C(=O)c3ccccc3S2(=O)=O)s1`, the inhibition was active: 49.1%.

Regarding `O=C(Cn1c(=O)n2nc(-c3cccc(F)c3)nc2c2ccccc21)NCc1ccc(Cl)cc1`, the inhibition was -17.8%.

Take `COc1cccc(NC(=O)Cn2c(=O)n(Cc3ccco3)c(=O)c3cc(OC)c(OC)cc32)c1`: the inhibition turned out to be 6.03%.

For the molecule `CCOC(=O)C1CCN(CC(=O)Nc2c(C(=O)OC)[nH]c3ccccc23)CC1`, the inhibition was active: 48.8%.

In the case of `Cc1ccn2c(Nc3ccccc3C)c(-c3ccccc3)nc2c1`, the inhibition worked out at 13%.

On to `O=C(Nc1ccc2nc(SCC(=O)N3CCOCC3)sc2c1)c1ccccc1Cl`, for which the inhibition is -1.28%.

Regarding `Cc1ccc(NC(=O)CSc2nnc(COc3ccc(Cl)cc3)o2)c(C)c1`, the inhibition is 6.64%.

`Cc1cccc(OCC(=O)Nc2ccccc2OCc2cc(=O)n3cc(C)ccc3n2)c1`: the inhibition was found to be 2%.

Consider `Cc1ccc(NCc2cccn2-c2nnc(N3CCC(C(=O)NCc4ccc(F)cc4)CC3)s2)cc1`, for which the inhibition stood at 3.53%.

As for `CCn1ccc2cc(S(=O)(=O)N3CCC(C(=O)NCc4ccc(F)cc4)CC3)ccc21`, the inhibition was 11.2%.

On to `COc1ccc(N(C)C(=O)C2CCN(S(=O)(=O)c3cc(Br)cc4c3N(C(C)=O)CC4)CC2)cc1`, for which the inhibition came to 6.53%.

For the molecule `Cc1ccc(OCc2cc(=O)n3ccsc3n2)c(NC(=O)c2ccco2)c1`, the inhibition is 10.6%.

On to `Cn1c(=O)n(C)c2cc(N3CCCCC3)c(NC(=O)c3c(F)cccc3F)cc21`, for which the inhibition came to 0.869%.

As a reminder, the inhibition is the change of the read-out against control, counted positive when it falls.
